# Source: PubChem BioAssay AID485364 (National Center for Advancing Translational Sciences (NCATS), 2010)
# The whole screen tested about 360,000 compounds, of which about 11,000 (3.1%) were called active. This list was built around the results that the source calls inconclusive (neither active nor inactive); the mix of calls is not that of the screen. Calls come from the whole dose curve; as a rule, active = well fitted inhibition curve with a large enough effect; inconclusive = small, poorly fitted or top-dose-only effect; inactive = no such curve, though single readings can be large or run the other way. Potencies of inconclusive entries are left out as doubtful fits.
# Target: Schistosoma mansoni thioredoxin glutathione reductase (TGR) (UniProt Q962Y6)
# Assay: qHTS Assay for the Inhibitors of Schistosoma Mansoni Peroxiredoxins; note: nearly all actives have a fitted effect of over 60% in size
# Settings: purified TGR, DTNB reduction, TNB absorbance 405 nm; series mostly up to 114 µM
# In short: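 First, TGR (20 nM dispensed) and NADPH were mixed with compound. Second, a 15 min room-temperature incubation followed. Third, further NADPH and then DTNB were added to start the reaction. Finally, TNB absorbance was monitored kinetically.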
# Potency is the fitted concentration of half-maximal effect; tags give direction and shape of the fitted curve.
row,SMILES,Potency
1,O=C(O)COc1ccc(C(=O)Cc2ccc3c(c2)OCCCO3)c(O)c1,"inconclusive [inhibitor, single point]"
2,Cc1ccc(N2CC(C(=O)N3CCC(c4nc5ccccc5[nH]4)CC3)CC2=O)cc1C (stereo not drawn),inactive
3,O=C(CCC(=O)c1cccs1)Nc1ncccc1O,"inconclusive [inhibitor, partial curve]"
4,O=C(CN1CCc2ccccc21)Nc1ccc2c(c1)OCO2,"inconclusive [inhibitor, partial curve]"
5,CC(=O)Oc1c(C)c2c3c(c1OC(C)=O)[C@@H](C)CC[C@@H]3[C@@H](C)C[C@H]2C=C(C)C,"inconclusive [inhibitor, partial curve]"
6,O=C(NCCOc1nc(N2CCOCC2)nc(N2CCOCC2)n1)Nc1ccccc1,"inconclusive [inhibitor, partial curve, poor fit]"
7,COc1ccc(CNC(=O)/C=C/C(=O)O)cc1OC,"inconclusive [inhibitor, partial curve]"
8,O=C1CC(/C=C/c2ccncc2)=Nc2ccccc2N1,"inconclusive [inhibitor, single point]"
9,COc1cccc(CN(C)C(=O)c2cc(-c3ccc(F)cc3)nc3ccccc23)c1,active: 2.24 µM
10,Cc1ccnc(NC(=O)CSc2ccccn2)c1,inactive
11,CN1CCC(N(C)CC(O)c2ccccc2)CC1 (stereo not drawn),active: 12.6 µM
12,CCSc1nnc(NC(=O)CSc2nnc(CNC(=O)c3ccc(OC)c(OC)c3)o2)s1,inactive
13,CCOc1ccc(CN(C)C(=O)c2cccc(S(=O)(=O)N3CCCC3)c2)cc1OC,"inconclusive [inhibitor, full curve]"
14,CCOc1ccc(CNC(=O)Cn2cc3c(n2)-c2c(oc(C(=O)N4CCOCC4)c2C)CC3)cc1,inactive
15,CCC(=Nc1ccc(N)cc1)C1=C(O)C(C(=O)OC)C(C)(C)CC1=O (stereo not drawn),"inconclusive [inhibitor, partial curve, poor fit]"
16,CCC1CO/C(=C(\C(Cl)=C(Cl)Cl)[N+](=O)[O-])N1 (stereo not drawn),active: 8.91 µM
17,CCC(C(=O)NCc1ccc(C)o1)n1nc(C)c2c(C)n(-c3ccccc3)nc2c1=O (stereo not drawn),"inconclusive [inhibitor, partial curve]"
18,C=CCN(C(=O)CSc1nc2c(sc3ccccc32)c(=O)n1CCN(CC)CC)c1ccccc1,inactive
19,N#CCn1c(CCl)nc2ccccc2c1=O,active: 28.2 µM
20,COc1ccc(C(=O)OC2=C(C(=O)c3ccccc3)N(C)S(=O)(=O)c3ccccc32)cc1OC,inactive
21,COc1ccc2nc(C)cc(SCC(=O)N/N=C/c3ccco3)c2c1,"inconclusive [inhibitor, partial curve]"
22,O=C(NCc1ccco1)c1ccccc1NS(=O)(=O)c1cccs1,"inconclusive [inhibitor, partial curve]"
23,Cc1ccc(S(=O)(=O)N2CCN(CCc3ccccc3)CC2)c(C)c1,inactive
24,O=C1CCCN1c1ccc(S(=O)(=O)N2CCCCC2)cc1,inactive

row,SMILES,Potency
1,CN(C)c1ccc(C#Cc2ccc3cc(CCO)oc(=O)c3c2)cc1,"inconclusive [inhibitor, single point]"
2,CCn1c(CNC(=O)Cc2ccc(OC)cc2)nnc1SCC(=O)c1ccccc1,active: 31.6 µM
3,O=C(CCS(=O)(=O)c1ccc(Cl)cc1)OCC(=O)N1CCCCC1,"inconclusive [inhibitor, partial curve]"
4,CCOc1cccc(/C=N/NC(=O)C2CCCC2)c1O,"inconclusive [inhibitor, single point]"
5,O=C(NCc1ccccn1)c1ccc(COc2ccc(Cl)cc2)o1,"inconclusive [inhibitor, full curve]"
6,CC(=O)Oc1oc(-c2ccccc2)nc1C=Nc1ccc(N(C)C)cc1,inactive
7,CC(C)CN(C(=O)CSc1nn(-c2ccc(Cl)cc2)c(=S)s1)C1CCS(=O)(=O)C1 (stereo not drawn),inactive
8,Cc1c(C)c2cc(Cl)c(OCc3nn[nH]n3)cc2oc1=O,"inconclusive [inhibitor, single point]"
9,Cc1cc(Br)ccc1SCC(=O)OCC(=O)N1CCN(C(=O)c2ccco2)CC1,"inconclusive [inhibitor, partial curve]"
10,CCCN1Cc2cccc(C(=O)Nc3ccc(-c4nc5ccccc5[nH]4)cc3)c2C1=O,inactive
11,CC1CCN(S(=O)(=O)c2ccc(Oc3ccc([N+](=O)[O-])cc3)cc2)CC1,inactive
12,CCC12OC(=N)C(C#N)(C1C)C(C#N)(C#N)C(c1ccccc1)O2 (stereo not drawn),"inconclusive [inhibitor, partial curve]"
13,OCCC#Cc1c(-c2ccsc2)sc2ccccc12,"inconclusive [inhibitor, partial curve]"
14,CCOC(=O)N1CCC(NC(=O)c2ccc3c(c2)N(C)CCS3)CC1,inactive
15,Cc1ccc(NC(=O)C2C3C=CC(O3)C2C(=O)O)c(C)c1 (stereo not drawn),active: 35.5 µM
16,COc1ccc2c(CSc3nnc(-c4cccnc4)n3-c3ccccc3F)cc(=O)oc2c1,inactive
17,O=C1CC(N2CCC(c3nc4ccccc4[nH]3)CC2)C(=O)N1c1ccccc1F (stereo not drawn),active: 31.6 µM
18,CCOc1ccc2[nH]c(=O)c(CN(CCO)C(=O)c3ccc(F)cc3)cc2c1,"inconclusive [inhibitor, single point]"
19,CP(=O)(Nc1ccc(Cl)cc1)c1nc2c(s1)CCCC2 (stereo not drawn),active: 22.4 µM
20,CCOC(=O)c1ccc(N2C(=O)c3n[nH]c(-c4ccco4)c3C2c2ccc(O)c(OC)c2)cc1 (stereo not drawn),"inconclusive [inhibitor, partial curve]"
21,Cc1ccc(-c2nn(-c3ccccc3)cc2CO)o1,active: 44.7 µM
22,O=C(c1cc2nc(C3CC3)cc(C(F)F)n2n1)N1CCOCC1,"inconclusive [inhibitor, partial curve]"
23,O=C(/C=C/c1ccco1)N1CCN(c2ccc(F)cc2)CC1,active: 10 µM
24,CC1CCC(C(C)C)C(OCC[N+](C)(C)C)C1 (stereo not drawn),inactive
